Source: the supplement of paper PMC8728848
This is one part of the list.

What was measured:
Assay in all cases: glycan array binding signal (z-score within array); higher = stronger binding
Details in all cases: glycan notation: IUPAC condensed, linker removed
[1] = target: Fuc(a1-2)Gal
Outline: (§1)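 Glycan array data were curated from 3228 arrays in the Consortium for Functional Glycomics database and kept only where the protein sequence was available. Glycan names were converted to IUPAC-condensed notation, and columns mapping to the same glycan were averaged. The binding signal is a within-array Z-score, averaged across arrays of the same protein sequence at different concentrations or buffers and across linkers. Negative Z-scores can be read as non-binding.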

[2] = target: Fuc(a1-2)Gal(b1-3)GalNAc
Outline: as §1

[3] = target: Fuc(a1-2)Gal(b1-3)GalNAc(a1-3)[Fuc(a1-2)]Gal(b1-4)Glc
Outline: as §1

[4] = target: Fuc(a1-2)Gal(b1-3)GalNAc(a1-3)[Fuc(a1-2)]Gal(b1-4)GlcNAc
Outline: as §1

[5] = target: Fuc(a1-2)Gal(b1-3)GalNAc(b1-3)Gal
Outline: as §1

[6] = target: Fuc(a1-2)Gal(b1-3)GalNAc(b1-3)Gal(a1-4)Gal(b1-4)Glc
Outline: as §1

[7] = target: Fuc(a1-2)Gal(b1-3)GalNAc(b1-4)[Neu5Ac(a2-3)]Gal(b1-4)Glc
Outline: as §1

[8] = target: Fuc(a1-2)Gal(b1-3)GlcNAc
Outline: as §1

[9] = target: Fuc(a1-2)Gal(b1-3)GlcNAc(b1-2)Man(a1-3)[Fuc(a1-2)Gal(b1-3)GlcNAc(b1-2)Man(a1-6)]Man(b1-4)GlcNAc(b1-4)GlcNAc
Outline: as §1

[10] = target: Fuc(a1-2)Gal(b1-3)GlcNAc(b1-2)Man(a1-3)[Fuc(a1-2)Gal(b1-3)GlcNAc(b1-2)Man(a1-6)]Man(b1-4)GlcNAc(b1-4)[Fuc(a1-6)]GlcNAc
Outline: as §1

[11] = target: Fuc(a1-2)Gal(b1-3)GlcNAc(b1-3)Gal(b1-4)Glc
Outline: as §1

[12] = target: Fuc(a1-2)Gal(b1-3)GlcNAc(b1-3)GalNAc
Outline: as §1

[13] = target: Fuc(a1-2)Gal(b1-3)GlcNAc(b1-3)[Fuc(a1-2)Gal(b1-3)GlcNAc(b1-6)]GalNAc
Outline: as §1

[14] = target: Fuc(a1-2)Gal(b1-3)GlcNAc(b1-3)[Gal(b1-4)GlcNAc(b1-6)]Gal(b1-4)Glc
Outline: as §1

[15] = target: Fuc(a1-2)Gal(b1-3)GlcNAc(b1-3)[Neu5Ac(a2-6)Gal(b1-4)GlcNAc(b1-6)]Gal(b1-4)Glc
Outline: as §1

[16] = target: Fuc(a1-2)Gal(b1-3)GlcNAc6S
Outline: as §1

[17] = target: Fuc(a1-2)Gal(b1-3)[Fuc(a1-4)]GlcNAc
Outline: as §1

[18] = target: Fuc(a1-2)Gal(b1-3)[Fuc(a1-4)]GlcNAc(b1-2)Man(a1-3)[Fuc(a1-2)Gal(b1-3)[Fuc(a1-4)]GlcNAc(b1-2)Man(a1-3)]Man(b1-4)GlcNAc(b1-4)GlcNAc
Outline: as §1

[19] = target: Fuc(a1-2)Gal(b1-3)[Fuc(a1-4)]GlcNAc(b1-2)Man(a1-3)[Fuc(a1-2)Gal(b1-3)[Fuc(a1-4)]GlcNAc(b1-2)Man(a1-6)]Man(b1-4)GlcNAc(b1-4)[Fuc(a1-6)]GlcNAc(b1-4)[Fuc(a1-6)]GlcNAc
Outline: as §1

[20] = target: Fuc(a1-2)Gal(b1-3)[Fuc(a1-4)]GlcNAc(b1-3)[Fuc(a1-3)[Gal(b1-4)]GlcNAc(b1-6)]Gal(b1-4)Glc
Outline: as §1

[21] = target: Fuc(a1-2)Gal(b1-3)[Fuc(a1-4)]GlcNAc(b1-3)[Gal(b1-4)GlcNAc(b1-6)]Gal(b1-4)Glc
Outline: as §1

[22] = target: Fuc(a1-2)Gal(b1-4)Fuc(a1-3)]GlcNAc(b1-2)Man(a1-3)[Fuc(a1-2)Gal(b1-4)[Fuc(a1-3)]GlcNAc(b1-2)Man(a1-6)]Man(b1-4)GlcNAc(b1-4)GlcNAc
Outline: as §1

[23] = target: Fuc(a1-2)Gal(b1-4)Glc
Outline: as §1

[24] = target: Fuc(a1-2)Gal(b1-4)Glc6S
Outline: as §1

[25] = target: Fuc(a1-2)Gal(b1-4)GlcNAc
Outline: as §1

[26] = target: Fuc(a1-2)Gal(b1-4)GlcNAc(b1-2)Man
Outline: as §1

[27] = target: Fuc(a1-2)Gal(b1-4)GlcNAc(b1-2)Man(a1-3)[Fuc(a1-2)Gal(b1-4)GlcNAc(b1-2)Man(a1-6)]Man(b1-4)GlcNAc(b1-4)GlcNAc
Outline: as §1

[28] = target: Fuc(a1-2)Gal(b1-4)GlcNAc(b1-2)Man(a1-3)[Fuc(a1-2)Gal(b1-4)GlcNAc(b1-2)Man(a1-6)]Man(b1-4)GlcNAc(b1-4)[Fuc(a1-6)]GlcNAc
Outline: as §1

[29] = target: Fuc(a1-2)Gal(b1-4)GlcNAc(b1-2)[Fuc(a1-2)Gal(b1-4)GlcNAc(b1-4)]Man(a1-3)[Fuc(a1-2)Gal(b1-4)GlcNAc(b1-2)Man(a1-6)]Man(b1-4)GlcNAc(b1-4)GlcNAc
Outline: as §1

[30] = target: Fuc(a1-2)Gal(b1-4)GlcNAc(b1-3)Gal(b1-4)GlcNAc
Outline: as §1

[31] = target: Fuc(a1-2)Gal(b1-4)GlcNAc(b1-3)Gal(b1-4)GlcNAc(b1-2)Man(a1-3)[Fuc(a1-2)Gal(b1-4)GlcNAc(b1-3)Gal(b1-4)GlcNAc(b1-2)Man(a1-6)]Man(b1-4)GlcNAc(b1-4)GlcNAc
Outline: as §1

[32] = target: Fuc(a1-2)Gal(b1-4)GlcNAc(b1-3)Gal(b1-4)GlcNAc(b1-3)Gal(b1-4)GlcNAc
Outline: as §1

[33] = target: Fuc(a1-2)Gal(b1-4)GlcNAc(b1-3)GalNAc
Outline: as §1

[34] = target: Fuc(a1-2)Gal(b1-4)GlcNAc(b1-3)[Fuc(a1-2)Gal(b1-4)GlcNAc(b1-6)]GalNAc
Outline: as §1

[35] = target: Fuc(a1-2)Gal(b1-4)GlcNAc(b1-3)[Fuc(a1-3)[Gal(b1-4)]GlcNAc(b1-6)]Gal(b1-4)Glc
Outline: as §1

[36] = target: Fuc(a1-2)Gal(b1-4)GlcNAc(b1-6)GalNAc
Outline: as §1

[37] = target: Fuc(a1-2)Gal(b1-4)GlcNAc6S
Outline: as §1

[38] = target: Fuc(a1-2)Gal(b1-4)[Fuc(a1-3)]GlcNAc
Outline: as §1

[39] = target: Fuc(a1-2)Gal(b1-4)[Fuc(a1-3)]GlcNAc(b1-2)Man(a1-3)[Fuc(a1-2)Gal(b1-4)[Fuc(a1-3)]GlcNAc(b1-2)Man(a1-6)]Man(b1-4)GlcNAc(b1-4)[Fuc(a1-6)]GlcNAc
Outline: as §1

[40] = target: Fuc(a1-2)Gal(b1-4)[Fuc(a1-3)]GlcNAc(b1-2)[Fuc(a1-2)Gal(b1-4)[Fuc(a1-3)]GlcNAc(b1-4)]Man(a1-3)[Fuc(a1-2)Gal(b1-4)[Fuc(a1-3)]GlcNAc(b1-2)Man(a1-6)]Man(b1-4)GlcNAc(b1-4)GlcNAc
Outline: as §1

[41] = target: Fuc(a1-2)Gal(b1-4)[Fuc(a1-3)]GlcNAc(b1-3)Gal(b1-4)[Fuc(a1-3)]GlcNAc
Outline: as §1

[42] = target: Fuc(a1-2)Gal(b1-4)[Fuc(a1-3)]GlcNAc(b1-3)Gal(b1-4)[Fuc(a1-3)]GlcNAc(b1-3)Gal(b1-4)[Fuc(a1-3)]GlcNAc
Outline: as §1

[43] = target: Fuc(a1-2)Gal(b1-4)[Fuc(a1-3)]GlcNAc(b1-3)GalNAc
Outline: as §1

[44] = target: Fuc(a1-2)Gal(b1-4)[Fuc(a1-3)]GlcNAc(b1-3)[Neu5Ac(a2-6)Gal(b1-4)GlcNAc(b1-6)]Gal(b1-4)Glc
Outline: as §1

[45] = target: Fuc(a1-2)Gal3S(b1-4)GlcNAc
Outline: as §1

B1: Jacalin (Artocarpus integrifolia) (protein)
chain: MAYSSLLSLSVLALLFSISSADTRKWFLANGINQNPIGIIEAAVGVSEDLLNLNGMEAKNDEQSGISQTVIVGPWGAKVSTSSNGKAFDDGAFTGIREINLSYNKETAIGDFQVVYDLNGSPYVGQNHKSFITGFTPVKISLDFPSEYIMEVSGYTGNVSGYVVVRSLTFKTNKKTYGPYGVTSGTPFNLPIENGLIVGFKGSIGYWLDYFSMYLSL
Which “glycan array binding signal (z-score)” value [1] does the source give for B1 here?
Its value is -0.25.

What about the “glycan array binding signal (z-score)” value [2] of the same binder?
Its value is 0.218.

What about the “glycan array binding signal (z-score)” value [3] of the same binder?
Its value is -0.246.

And the “glycan array binding signal (z-score)” value [4]?
The value was -0.265.

What about the “glycan array binding signal (z-score)” value [5] of the same binder?
The value was 1.4.

What about the “glycan array binding signal (z-score)” value [6] of the same binder?
Its value is 0.229.

And the “glycan array binding signal (z-score)” value [7]?
The value was -0.263.

And the “glycan array binding signal (z-score)” value [8]?
Its value is -0.268.

What about the “glycan array binding signal (z-score)” value [9] of the same binder?
Its value is -0.21.

And the “glycan array binding signal (z-score)” value [10]?
Its value is -0.229.

And the “glycan array binding signal (z-score)” value [11]?
The value was -0.274.

And the “glycan array binding signal (z-score)” value [12]?
The value was 0.475.

What about the “glycan array binding signal (z-score)” value [13] of the same binder?
Its value is -0.223.

What about the “glycan array binding signal (z-score)” value [14] of the same binder?
Its value is -0.276.

What about the “glycan array binding signal (z-score)” value [15] of the same binder?
The value was -0.255.

What about the “glycan array binding signal (z-score)” value [16] of the same binder?
The value was -0.134.

What about the “glycan array binding signal (z-score)” value [17] of the same binder?
Its value is -0.24.

What about the “glycan array binding signal (z-score)” value [18] of the same binder?
The value was -0.154.

And the “glycan array binding signal (z-score)” value [19]?
The value was -0.204.

And the “glycan array binding signal (z-score)” value [20]?
The value was -0.192.

And the “glycan array binding signal (z-score)” value [21]?
The value was -0.207.

And the “glycan array binding signal (z-score)” value [22]?
Its value is -0.226.

And the “glycan array binding signal (z-score)” value [23]?
Its value is -0.256.

And the “glycan array binding signal (z-score)” value [24]?
The value was -0.249.

And the “glycan array binding signal (z-score)” value [25]?
The value was -0.27.

What about the “glycan array binding signal (z-score)” value [26] of the same binder?
The value was -0.237.

What about the “glycan array binding signal (z-score)” value [27] of the same binder?
The value was -0.227.

What about the “glycan array binding signal (z-score)” value [28] of the same binder?
Its value is -0.199.

What about the “glycan array binding signal (z-score)” value [29] of the same binder?
The value was -0.205.

And the “glycan array binding signal (z-score)” value [30]?
The value was -0.282.

And the “glycan array binding signal (z-score)” value [31]?
Its value is -0.199.

And the “glycan array binding signal (z-score)” value [32]?
Its value is -0.264.

And the “glycan array binding signal (z-score)” value [33]?
The value was 0.829.

What about the “glycan array binding signal (z-score)” value [34] of the same binder?
The value was -0.232.

And the “glycan array binding signal (z-score)” value [35]?
The value was -0.249.

What about the “glycan array binding signal (z-score)” value [36] of the same binder?
Its value is -0.164.

What about the “glycan array binding signal (z-score)” value [37] of the same binder?
Its value is -0.237.

And the “glycan array binding signal (z-score)” value [38]?
The value was -0.259.

And the “glycan array binding signal (z-score)” value [39]?
The value was -0.224.

And the “glycan array binding signal (z-score)” value [40]?
Its value is -0.131.

And the “glycan array binding signal (z-score)” value [41]?
The value was -0.265.

What about the “glycan array binding signal (z-score)” value [42] of the same binder?
Its value is -0.243.

And the “glycan array binding signal (z-score)” value [43]?
The value was -0.131.

And the “glycan array binding signal (z-score)” value [44]?
Its value is -0.259.

What about the “glycan array binding signal (z-score)” value [45] of the same binder?
Its value is -0.25.
